Out of some 310,000 compounds screened, about 14,000 (4.5%) showed an effect of 50% or more. The effect is printed as a negative number. The list shows a part of the results.
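Further: peak tail current of the secondary pulse compared with the same well before compound.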

In this test the target is human ether-à-go-go-related gene (hERG) potassium channel (human, UniProt Q12809). Kind of test: primary screen, population patch clamp on CHO cells stably expressing hERG.
Sequence of human ether-à-go-go-related gene (hERG) potassium channel (Q12809 whole entry, looked up): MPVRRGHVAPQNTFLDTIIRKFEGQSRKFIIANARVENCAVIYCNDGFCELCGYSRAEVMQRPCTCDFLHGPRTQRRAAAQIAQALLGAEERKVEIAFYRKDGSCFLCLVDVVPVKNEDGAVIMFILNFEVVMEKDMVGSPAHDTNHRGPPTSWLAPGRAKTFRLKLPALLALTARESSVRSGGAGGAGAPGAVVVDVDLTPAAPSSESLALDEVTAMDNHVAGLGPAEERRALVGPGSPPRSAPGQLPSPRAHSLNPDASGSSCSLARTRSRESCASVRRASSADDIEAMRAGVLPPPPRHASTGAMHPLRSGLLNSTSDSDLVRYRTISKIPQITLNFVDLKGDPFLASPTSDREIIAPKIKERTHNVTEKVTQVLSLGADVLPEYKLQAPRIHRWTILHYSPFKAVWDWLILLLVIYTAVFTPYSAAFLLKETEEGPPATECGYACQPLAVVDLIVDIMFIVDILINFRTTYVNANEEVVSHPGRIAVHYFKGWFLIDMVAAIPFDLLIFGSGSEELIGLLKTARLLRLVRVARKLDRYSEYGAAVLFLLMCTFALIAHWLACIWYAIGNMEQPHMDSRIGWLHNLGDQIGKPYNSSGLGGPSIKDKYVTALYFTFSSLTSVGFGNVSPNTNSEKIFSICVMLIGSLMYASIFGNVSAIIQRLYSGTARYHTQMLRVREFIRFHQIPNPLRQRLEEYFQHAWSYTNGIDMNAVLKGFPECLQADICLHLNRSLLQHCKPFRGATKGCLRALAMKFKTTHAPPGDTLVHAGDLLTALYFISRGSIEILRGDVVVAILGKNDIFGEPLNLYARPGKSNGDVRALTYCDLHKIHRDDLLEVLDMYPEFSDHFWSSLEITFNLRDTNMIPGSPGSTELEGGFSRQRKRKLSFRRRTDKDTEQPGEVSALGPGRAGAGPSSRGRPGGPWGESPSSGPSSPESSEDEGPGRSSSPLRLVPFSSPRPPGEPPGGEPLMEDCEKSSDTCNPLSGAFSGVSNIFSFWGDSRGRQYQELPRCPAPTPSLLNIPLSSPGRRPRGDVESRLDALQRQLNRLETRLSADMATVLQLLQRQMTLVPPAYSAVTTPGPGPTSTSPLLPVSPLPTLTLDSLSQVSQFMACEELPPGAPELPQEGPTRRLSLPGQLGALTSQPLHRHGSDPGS
Take `COC(=O)c1ccc(COc2ccc(/C=N/N3CCN(C)CC3)cc2)cc1`: the “hERG current change (%, negative = inhibition) at 10uM” value is 14.2%. With `O=C(Oc1ccc(OC(=O)c2ccncc2)cc1)c1ccncc1`, the “hERG current change (%, negative = inhibition) at 10uM” value was -1.78%.

With `COC(=O)c1cc(CNC(=O)Cc2ccsc2)ccc1OC`, the “hERG current change (%, negative = inhibition) at 10uM” value is recorded as 7.23%.

With `O=C(NNS(=O)(=O)c1ccccc1)c1cccs1`, the “hERG current change (%, negative = inhibition) at 10uM” value came out at 3.77%. Consider `C=CCn1c(=O)c(C(=O)NCCc2ccccc2)c(O)c2ccccc21`, for which the “hERG current change (%, negative = inhibition) at 10uM” value worked out at 2.07%. The value for `CCn1cc(CCC(=O)NCc2cccc(OC)c2OC)c2ccccc21` was 8.51%; that for `CCOc1ccc(S(=O)(=O)NCCC(=O)N2CC=C(c3ccccc3)CC2)cc1` was -30.1%; that for `Cc1ccc(N(C)C(=O)c2cc(S(=O)(=O)N3CCc4ccccc43)cn2C)cc1` was -30.7%. The value for `CCC(=NCCCn1ccnc1)c1c(O)n(-c2ccccc2)c(=O)[nH]c1=O` was 7.4%. Consider `Cc1ccc(NC2CCCN(C(=O)c3ccoc3C)C2)cc1C` (centres unmarked), for which the “hERG current change (%, negative = inhibition) at 10uM” value is reported as -1.68%.

`CCc1ccccc1S(=O)(=O)Cc1ccc(C(=O)NC2CCCC2)o1`: the “hERG current change (%, negative = inhibition) at 10uM” value is given as 12.1%.

For the compound `O=C(CSc1nnc(CNC(=O)C23CC4CC(CC(C4)C2)C3)n1-c1ccccc1)Nc1ccccc1`, the “hERG current change (%, negative = inhibition) at 10uM” value is recorded as -1.89%. The value for `COC(=O)/C(=C\Nc1cccc(Cl)c1C)c1ncc(C(F)(F)F)cc1Cl` was 7.02%.

As for `Cc1nc(N2CCN(Cc3nc4ccccc4[nH]3)CC2)c2oc3ccccc3c2n1`, the “hERG current change (%, negative = inhibition) at 10uM” value was -52.1%.

Regarding `Cc1cccc(-c2c3c(=O)n(C)c(=O)n(C)c3cn2-c2ccc(O)cc2)c1`, the “hERG current change (%, negative = inhibition) at 10uM” value is reported as -6.98%. The value for `CCOc1ccccc1NC(=O)CCS(=O)(=O)c1cccs1` was 14.3%. For `Cc1ccc(N(C(C)C(=O)Nc2ccccc2C(=O)N2CCOCC2)S(C)(=O)=O)cc1C` (centres unmarked), the “hERG current change (%, negative = inhibition) at 10uM” value stood at 1.01%. The value for `CCN(CC)c1ccc(/C=N/NC(=O)c2ccc(Br)o2)cc1` was -23.7%; that for `CCN(CC(=O)Nc1sc2c(c1C#N)CCC(C)C2)Cc1nc2ccccc2c(=O)[nH]1` (centres unmarked) was 1.57%.

Turning to `C#CCOCCOCCOCCNc1nc(N2CCOCC2)nc(N2CCN(C(=O)[C@H]([C@@H](C)CC)n3cc(CCC[NH+]=C(N)N)nn3)CC2)n1.[Cl-]`, the “hERG current change (%, negative = inhibition) at 10uM” value is listed as -0.117%. The value for `O=C(CCCc1ccccc1)Nc1nccs1` was -1.81%. The value for `COc1ccc2[nH]c(=O)c(CN(C(C)=O)c3ccc(C)c(C)c3)cc2c1` was -8.03%; that for `Cc1cc(C)c(C)c(S(=O)(=O)N[C@@H](C)C(=O)OCC(N)=O)c1C` was 8.13%. As to `CCOC(=O)c1c(C)n(C)c2ccc(OC(=O)c3ccco3)cc12`, the “hERG current change (%, negative = inhibition) at 10uM” value stood at 10.1%. The value for `CCOc1ccc(-c2nnc(N)o2)cc1` was 9.64%.

As to `Cc1ccc(S(=O)(=O)N2CCOCC2)cc1C(=O)NNC(=O)c1ccoc1C`, the “hERG current change (%, negative = inhibition) at 10uM” value was -0.103%. With `CCCN(C(=O)Cc1ccc(S(=O)(=O)N2CCOCC2)s1)c1c(N)n(Cc2ccccc2)c(=O)[nH]c1=O`, the “hERG current change (%, negative = inhibition) at 10uM” value is reported as 16.8%. Turning to `O=C(Nc1ccc(Br)cc1)N1CCCCC1`, the “hERG current change (%, negative = inhibition) at 10uM” value was 12.1%. The value for `COCc1cc(C)nc(OCC(=O)N/N=C/c2ccc(C)o2)c1C#N` was 6.62%. As for `CCOC(=O)C1=C(C)N(C)C(C)=C(C(=O)OCC)C1c1ccccn1`, the “hERG current change (%, negative = inhibition) at 10uM” value was 3.24%. The value for `O=C(Nc1ccccc1)c1nnsc1S(=O)c1ccc(Cl)cc1` (centres unmarked) was 23.4%. The value for `CC(C(=O)N1CCN(c2ccccc2)CC1)N1C(=O)C2CC=CCC2C1=O` (centres unmarked) was 7.43%; that for `O=C(O)c1ccc(NC(=O)c2ccccc2NC(=O)c2ccccc2Cl)cc1` was 19.2%; that for `CCCCn1nnc(NC(=O)COc2cc(C)ccc2C(C)C)n1` was 7.24%.

Regarding `Cc1ccc2c(C)c(C(=O)N(C)Cc3nccn3C)oc2c1C`, the “hERG current change (%, negative = inhibition) at 10uM” value was -26.4%. The value for `COc1ccc(N(CC(=O)NC(C)C)C(=O)CCC(=O)Nc2ccccn2)cc1` was 8.24%; that for `CC1CCN(Cc2cc(=O)oc3ccc4ccccc4c23)CC1` was -32.7%. With `C=CCc1ccccc1OCCNCc1ccccc1.O=C(O)C(=O)O`, the “hERG current change (%, negative = inhibition) at 10uM” value worked out at 2.51%. The value for `Cc1cc(C(=O)N2CCC(C(=O)O)CC2)c(C(F)(F)F)o1` was 12.9%. The value for `CC(C)(C)c1ccc(OCCC(=O)OCC(=O)Nc2ccc(N3CCOCC3)cc2)cc1` was 22.7%.

For the compound `COc1ccc(C2SCC(=O)N2c2c(C)n(C)n(-c3ccccc3)c2=O)cc1OC` (centres unmarked), the “hERG current change (%, negative = inhibition) at 10uM” value was determined as 13.6%. For the compound `COc1ccc(C2C(C(=O)c3ccc(C)o3)=C(O)C(=O)N2CC2CCCO2)cc1OC` (centres unmarked), the “hERG current change (%, negative = inhibition) at 10uM” value is given as 20.7%. The value for `CCOC(=O)N1CCN(c2c(NCc3ccc(F)cc3)c(=O)c2=O)CC1` was -4.47%; that for `COc1c(/C=N/Nc2ccc(C(=O)O)cc2)c(CCN(C)C(C)=O)cc2c1OCO2` was 12.5%.
